{"source": "paper PMC4336329", "about": "(PLoS ONE, 2015)", "note": "The campaign covered roughly 310,000 compounds. About 2,200 (0.71%) showed an effect of 50% or more. The effect is printed as a negative number. This is one part of the list."}
{"target": "human ether-à-go-go-related gene (hERG) potassium channel (human, UniProt Q12809)", "sequence (Q12809 whole entry, looked up)": "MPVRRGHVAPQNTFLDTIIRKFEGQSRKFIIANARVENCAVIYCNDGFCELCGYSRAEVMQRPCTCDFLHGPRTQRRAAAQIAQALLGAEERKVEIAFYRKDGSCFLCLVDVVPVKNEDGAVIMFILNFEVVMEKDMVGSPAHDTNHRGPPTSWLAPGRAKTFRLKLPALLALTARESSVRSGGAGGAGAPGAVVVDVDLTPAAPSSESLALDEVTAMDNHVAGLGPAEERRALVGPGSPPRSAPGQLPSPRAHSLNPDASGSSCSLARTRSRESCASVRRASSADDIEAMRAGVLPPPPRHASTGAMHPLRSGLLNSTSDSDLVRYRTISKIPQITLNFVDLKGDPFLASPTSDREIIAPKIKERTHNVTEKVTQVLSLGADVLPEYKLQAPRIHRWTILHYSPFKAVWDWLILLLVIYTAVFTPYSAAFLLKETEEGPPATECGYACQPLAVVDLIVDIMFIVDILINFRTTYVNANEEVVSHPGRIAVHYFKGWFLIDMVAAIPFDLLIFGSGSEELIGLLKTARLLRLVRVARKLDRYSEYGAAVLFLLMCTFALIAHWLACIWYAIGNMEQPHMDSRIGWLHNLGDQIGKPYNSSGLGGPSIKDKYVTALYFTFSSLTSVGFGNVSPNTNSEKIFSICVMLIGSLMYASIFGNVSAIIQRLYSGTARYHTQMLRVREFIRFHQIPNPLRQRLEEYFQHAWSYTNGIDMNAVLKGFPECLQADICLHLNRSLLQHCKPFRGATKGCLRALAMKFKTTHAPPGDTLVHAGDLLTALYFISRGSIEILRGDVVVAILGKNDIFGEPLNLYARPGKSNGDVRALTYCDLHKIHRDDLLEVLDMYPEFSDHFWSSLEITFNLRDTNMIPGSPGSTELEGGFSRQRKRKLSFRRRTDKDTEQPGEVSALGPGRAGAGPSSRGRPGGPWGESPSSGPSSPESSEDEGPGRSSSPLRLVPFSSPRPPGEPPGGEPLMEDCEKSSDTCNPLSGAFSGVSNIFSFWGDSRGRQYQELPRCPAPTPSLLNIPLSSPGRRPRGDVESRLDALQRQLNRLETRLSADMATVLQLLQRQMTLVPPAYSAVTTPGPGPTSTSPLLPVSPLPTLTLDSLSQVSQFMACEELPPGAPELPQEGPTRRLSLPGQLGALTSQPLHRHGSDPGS", "assay": "primary screen, population patch clamp on CHO cells stably expressing hERG", "units": {"hERG current change (%, negative = inhibition) at 1uM": "%"}}
{"smiles": "O=S(=O)(/N=C(\\c1ccccc1F)N1CCCCC1)c1ccccc1", "hERG current change (%, negative = inhibition) at 1uM": 2.46}
{"smiles": "Cc1cc(NC(=O)CSc2ccc(F)cc2)no1", "hERG current change (%, negative = inhibition) at 1uM": 10.9}
{"smiles": "Cc1ccc(S(=O)(=O)N2CCCC2C(=O)NC2=NCCS2)cc1", "note": "(stereo not shown)", "hERG current change (%, negative = inhibition) at 1uM": 11.6}
{"smiles": "CCO[C@@H]1OC(C(=O)O)=C[C@H](c2ccc(Br)cc2)[C@H]1CCCO", "hERG current change (%, negative = inhibition) at 1uM": 16.9}
{"smiles": "COc1ccc(N2CCN(C(=O)c3cccs3)CC2)cc1", "hERG current change (%, negative = inhibition) at 1uM": 10.3}
{"smiles": "COc1ccccc1N1CCN(C(=O)c2cn(C)c3ccc(S(=O)(=O)N4CCOCC4)cc3c2=O)CC1", "hERG current change (%, negative = inhibition) at 1uM": 13.1}
{"smiles": "CC(=O)Nc1cccc(NC(=O)Cc2nc(-c3ccccc3)sc2-c2ccc(C)cc2)c1", "hERG current change (%, negative = inhibition) at 1uM": 12.4}
{"smiles": "N#Cc1nc(-c2ccccc2F)oc1NCCc1ccccc1", "hERG current change (%, negative = inhibition) at 1uM": 12.2}
{"smiles": "Cc1cc(=O)c2n(Cc3ccc(Cl)cc3)nc[n+]2[nH]1.[Cl-]", "hERG current change (%, negative = inhibition) at 1uM": 3.97}
{"smiles": "COC(=O)n1c(=O)oc2ccc(S(=O)(=O)N3CCCCC3)cc21", "hERG current change (%, negative = inhibition) at 1uM": 10.6}
{"smiles": "CCC(=O)Nc1cccc(NC(=O)CSc2nnc(-c3ccc(NS(C)(=O)=O)cc3)n2CC)c1", "hERG current change (%, negative = inhibition) at 1uM": 12.7}
{"smiles": "CN1CCN(CC(=O)NC(=O)NC2CCCCC2)CC1", "hERG current change (%, negative = inhibition) at 1uM": 9.81}
{"smiles": "Cc1ccc(NC(=O)CNCc2ccccc2)c(Br)c1", "hERG current change (%, negative = inhibition) at 1uM": -0.411}
{"smiles": "CC1(C)CC(NS(=O)(=O)c2ccc(C(C)(C)C)cc2)CC(C)(C)N1", "hERG current change (%, negative = inhibition) at 1uM": 6.9}
{"smiles": "CCCNC(=O)c1cc(S(=O)(=O)N2CCc3ccccc32)ccc1F", "hERG current change (%, negative = inhibition) at 1uM": 0.165}
{"smiles": "COc1cccc(NC(=O)CCS(=O)(=O)c2cc3c(cc2Cl)NC(=O)CO3)c1", "hERG current change (%, negative = inhibition) at 1uM": 9.3}
{"smiles": "O=S(=O)(NCCNS(=O)(=O)c1ccc(F)cc1)c1ccc(F)cc1", "hERG current change (%, negative = inhibition) at 1uM": -9.15}
{"smiles": "Cn1c(SCC(=O)NNC(=O)c2ccc(Br)cc2)nnc1-c1cccnc1", "hERG current change (%, negative = inhibition) at 1uM": 1.36}
{"smiles": "COc1ccc2c(CN3CC=C(c4ccccc4)CC3)cc(=O)oc2c1", "hERG current change (%, negative = inhibition) at 1uM": 13.1}
{"smiles": "COc1ccc(OC)c(S(=O)(=O)N/N=C(/C)c2c[nH]c3ccccc23)c1", "hERG current change (%, negative = inhibition) at 1uM": 19.7}
{"smiles": "CCOC(=O)c1cc2ccc(OC)c(OC)c2c(=O)s1", "hERG current change (%, negative = inhibition) at 1uM": 10.1}
{"smiles": "Cc1cccc2sc(NC(=O)CNS(=O)(=O)c3ccc(Br)s3)nc12", "hERG current change (%, negative = inhibition) at 1uM": 10.1}
{"smiles": "Cc1cc(Br)c(S(=O)(=O)n2nnc3ccccc32)cc1C", "hERG current change (%, negative = inhibition) at 1uM": 8.45}
{"smiles": "COc1ccccc1/C=C/c1nc(C#N)c(N(C)C)o1", "hERG current change (%, negative = inhibition) at 1uM": 12.8}
{"smiles": "CN(/N=C/c1cc(Cl)cc(Cl)c1O)c1c(Cl)cccc1[N+](=O)[O-]", "hERG current change (%, negative = inhibition) at 1uM": 8.51}
{"smiles": "Cc1noc(COc2ccccc2OCC(O)CNC(C)(C)C)n1.Cl", "note": "(stereo not shown)", "hERG current change (%, negative = inhibition) at 1uM": 14.7}
{"smiles": "Cc1ccc(NS(=O)(=O)c2cccc(C(=O)NCCCN3CCOCC3)c2)cc1", "hERG current change (%, negative = inhibition) at 1uM": -5.41}
{"smiles": "COc1ccc(S(=O)(=O)N2CCCCC2)cc1", "hERG current change (%, negative = inhibition) at 1uM": 3.95}
{"smiles": "Cc1ccc(C(=O)OCC(=O)NCCc2ccccc2)cc1C", "hERG current change (%, negative = inhibition) at 1uM": 9.53}
{"smiles": "CC12CCCCC1N(O)CN2O", "note": "(stereo not shown)", "hERG current change (%, negative = inhibition) at 1uM": 4.92}
{"smiles": "N/C(=N\\S(=O)(=O)c1cccs1)c1ccccc1", "hERG current change (%, negative = inhibition) at 1uM": 12.9}
{"smiles": "COc1ccc(-c2[nH]ncc2-c2cnc(C)s2)c(O)c1", "hERG current change (%, negative = inhibition) at 1uM": 17}
{"smiles": "CC(=O)Nc1ccc2oc(-c3cc(F)c(F)cc3Cl)nc2c1", "hERG current change (%, negative = inhibition) at 1uM": 5.97}
{"smiles": "Cc1cc(C(=O)NCC(C)(C)N2CCOCC2)c(C)o1", "hERG current change (%, negative = inhibition) at 1uM": 18}
{"smiles": "Cc1ccc(C(=O)NCC(=O)OCc2csc(-c3ccccc3)n2)cc1", "hERG current change (%, negative = inhibition) at 1uM": 8.35}
{"smiles": "CC1C/C(=C\\c2ccccc2[N+](=O)[O-])c2nc3ccccc3c(C(=O)O)c2C1", "note": "(stereo not shown)", "hERG current change (%, negative = inhibition) at 1uM": 17.9}
{"smiles": "Cc1cc(-n2c(=O)c(C#N)cc3c(=O)n4cccc(C)c4nc32)no1", "hERG current change (%, negative = inhibition) at 1uM": -46.8}
{"smiles": "CC1CC(C)CN(C(=O)CN2C(=O)NC(C)(C)C2=O)C1", "note": "(stereo not shown)", "hERG current change (%, negative = inhibition) at 1uM": 9.98}
{"smiles": "O=C(CSc1nc2ccccc2[nH]1)Nc1c(F)c(F)c(F)c(F)c1F", "hERG current change (%, negative = inhibition) at 1uM": 16.7}
{"smiles": "Cc1[nH][nH]c(=O)c1C", "hERG current change (%, negative = inhibition) at 1uM": 5.12}
{"smiles": "COC(=O)N(NC(=O)C(O)(c1ccccc1)c1ccccc1)c1ccc(C)cc1", "hERG current change (%, negative = inhibition) at 1uM": 7.79}
{"smiles": "COc1ccc2[nH]c(C)cc(=O)c2c1", "hERG current change (%, negative = inhibition) at 1uM": 16.9}
{"smiles": "CCn1c(C)nc2cc(C(=O)OC)ccc21", "hERG current change (%, negative = inhibition) at 1uM": 14.9}
{"smiles": "Clc1ccc(Cl)c(OCCCCN2CCNCC2)c1.O=C(O)C(=O)O", "hERG current change (%, negative = inhibition) at 1uM": 7.87}
{"smiles": "CCN(CC)CCN1C(=O)C(=O)/C(=C(/O)c2ccc(OC)cc2)C1c1ccco1", "note": "(stereo not shown)", "hERG current change (%, negative = inhibition) at 1uM": 10.6}
{"smiles": "Cc1ccc(-n2c(-c3ccncc3)n[nH]c2=S)cc1C", "hERG current change (%, negative = inhibition) at 1uM": 5.81}
